{
  "sequences": {"note": "The chains behind the UniProt entries cited, without tags or fusion partners.", "UniProt A2AWL7": "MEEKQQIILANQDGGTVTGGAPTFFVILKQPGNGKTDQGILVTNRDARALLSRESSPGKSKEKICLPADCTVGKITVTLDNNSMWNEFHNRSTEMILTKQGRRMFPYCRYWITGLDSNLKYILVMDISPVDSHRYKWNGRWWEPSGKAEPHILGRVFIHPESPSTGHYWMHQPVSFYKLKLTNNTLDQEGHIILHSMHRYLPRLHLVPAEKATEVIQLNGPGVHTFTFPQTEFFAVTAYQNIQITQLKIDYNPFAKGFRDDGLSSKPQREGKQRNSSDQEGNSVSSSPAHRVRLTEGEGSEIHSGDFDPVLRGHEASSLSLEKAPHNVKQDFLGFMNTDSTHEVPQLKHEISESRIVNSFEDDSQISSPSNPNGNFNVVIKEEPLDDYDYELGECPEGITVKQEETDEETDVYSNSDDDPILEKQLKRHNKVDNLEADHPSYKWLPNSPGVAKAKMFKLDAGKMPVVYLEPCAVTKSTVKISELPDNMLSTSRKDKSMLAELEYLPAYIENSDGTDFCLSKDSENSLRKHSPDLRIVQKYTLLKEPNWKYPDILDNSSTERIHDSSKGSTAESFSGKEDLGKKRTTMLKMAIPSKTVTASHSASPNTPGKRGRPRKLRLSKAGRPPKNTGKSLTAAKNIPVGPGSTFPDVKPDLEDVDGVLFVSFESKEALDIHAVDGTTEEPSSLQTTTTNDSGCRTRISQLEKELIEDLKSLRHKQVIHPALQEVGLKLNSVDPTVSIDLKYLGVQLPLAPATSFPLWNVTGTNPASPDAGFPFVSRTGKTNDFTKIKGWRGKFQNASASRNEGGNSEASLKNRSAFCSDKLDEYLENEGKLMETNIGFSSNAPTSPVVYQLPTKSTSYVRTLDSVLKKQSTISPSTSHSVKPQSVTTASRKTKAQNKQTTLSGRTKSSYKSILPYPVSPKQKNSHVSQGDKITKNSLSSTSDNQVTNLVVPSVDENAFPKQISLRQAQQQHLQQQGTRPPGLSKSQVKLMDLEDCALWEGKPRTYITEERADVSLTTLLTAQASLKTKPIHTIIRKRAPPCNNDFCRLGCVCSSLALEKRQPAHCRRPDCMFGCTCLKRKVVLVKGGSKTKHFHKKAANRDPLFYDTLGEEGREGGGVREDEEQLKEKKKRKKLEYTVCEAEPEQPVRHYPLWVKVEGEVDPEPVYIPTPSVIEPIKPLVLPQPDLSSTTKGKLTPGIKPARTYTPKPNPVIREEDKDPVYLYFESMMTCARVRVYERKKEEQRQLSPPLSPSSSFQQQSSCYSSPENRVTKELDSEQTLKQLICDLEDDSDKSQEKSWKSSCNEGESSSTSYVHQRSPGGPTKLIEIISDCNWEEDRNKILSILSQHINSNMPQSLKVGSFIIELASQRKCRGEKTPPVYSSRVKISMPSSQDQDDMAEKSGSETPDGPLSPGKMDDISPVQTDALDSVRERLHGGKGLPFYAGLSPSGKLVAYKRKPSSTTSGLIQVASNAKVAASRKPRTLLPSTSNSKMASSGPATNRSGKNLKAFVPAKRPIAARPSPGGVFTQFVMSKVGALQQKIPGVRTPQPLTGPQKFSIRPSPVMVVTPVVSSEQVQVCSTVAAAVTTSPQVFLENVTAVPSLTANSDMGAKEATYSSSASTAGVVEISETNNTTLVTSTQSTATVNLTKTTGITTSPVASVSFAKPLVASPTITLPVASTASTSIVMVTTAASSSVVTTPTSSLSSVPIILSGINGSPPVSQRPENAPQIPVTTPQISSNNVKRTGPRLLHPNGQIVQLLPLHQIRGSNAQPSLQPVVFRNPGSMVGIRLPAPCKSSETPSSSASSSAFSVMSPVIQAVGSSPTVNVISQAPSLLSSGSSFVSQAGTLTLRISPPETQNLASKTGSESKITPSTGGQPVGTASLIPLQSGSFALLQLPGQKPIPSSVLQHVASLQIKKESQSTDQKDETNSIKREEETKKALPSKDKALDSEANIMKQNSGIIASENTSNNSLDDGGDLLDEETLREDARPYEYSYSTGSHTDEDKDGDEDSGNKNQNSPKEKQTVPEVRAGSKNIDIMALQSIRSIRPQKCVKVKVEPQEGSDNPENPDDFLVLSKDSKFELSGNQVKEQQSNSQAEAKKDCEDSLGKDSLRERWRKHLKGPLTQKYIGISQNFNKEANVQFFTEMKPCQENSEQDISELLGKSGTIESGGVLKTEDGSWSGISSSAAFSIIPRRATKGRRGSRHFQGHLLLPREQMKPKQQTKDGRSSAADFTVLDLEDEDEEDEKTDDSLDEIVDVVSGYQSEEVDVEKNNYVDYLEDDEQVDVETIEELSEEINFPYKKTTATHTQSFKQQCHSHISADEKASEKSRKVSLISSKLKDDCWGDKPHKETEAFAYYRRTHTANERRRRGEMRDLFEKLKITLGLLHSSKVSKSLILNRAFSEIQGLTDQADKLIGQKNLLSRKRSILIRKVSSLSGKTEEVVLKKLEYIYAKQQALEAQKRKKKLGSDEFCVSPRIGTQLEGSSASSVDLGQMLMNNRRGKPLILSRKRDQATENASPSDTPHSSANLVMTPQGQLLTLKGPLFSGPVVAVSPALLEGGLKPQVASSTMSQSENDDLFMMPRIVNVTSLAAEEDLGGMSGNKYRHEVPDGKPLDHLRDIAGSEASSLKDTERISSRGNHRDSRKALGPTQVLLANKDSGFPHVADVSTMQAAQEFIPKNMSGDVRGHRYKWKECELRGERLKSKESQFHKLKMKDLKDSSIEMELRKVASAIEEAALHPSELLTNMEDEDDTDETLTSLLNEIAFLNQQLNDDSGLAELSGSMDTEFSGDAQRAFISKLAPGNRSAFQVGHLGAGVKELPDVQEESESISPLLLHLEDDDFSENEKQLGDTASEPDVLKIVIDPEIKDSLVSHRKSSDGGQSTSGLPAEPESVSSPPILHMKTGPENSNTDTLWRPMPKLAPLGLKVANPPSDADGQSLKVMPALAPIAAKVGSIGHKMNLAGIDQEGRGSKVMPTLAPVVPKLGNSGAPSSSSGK", "UniProt Q3UK78": "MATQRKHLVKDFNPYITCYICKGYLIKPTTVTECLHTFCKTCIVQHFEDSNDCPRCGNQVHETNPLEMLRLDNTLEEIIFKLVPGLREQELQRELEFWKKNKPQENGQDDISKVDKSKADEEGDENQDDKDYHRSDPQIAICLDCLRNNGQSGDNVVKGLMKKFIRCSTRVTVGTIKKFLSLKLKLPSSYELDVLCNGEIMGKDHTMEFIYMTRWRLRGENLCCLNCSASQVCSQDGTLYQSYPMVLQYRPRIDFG", "UniProt Q6PR54": "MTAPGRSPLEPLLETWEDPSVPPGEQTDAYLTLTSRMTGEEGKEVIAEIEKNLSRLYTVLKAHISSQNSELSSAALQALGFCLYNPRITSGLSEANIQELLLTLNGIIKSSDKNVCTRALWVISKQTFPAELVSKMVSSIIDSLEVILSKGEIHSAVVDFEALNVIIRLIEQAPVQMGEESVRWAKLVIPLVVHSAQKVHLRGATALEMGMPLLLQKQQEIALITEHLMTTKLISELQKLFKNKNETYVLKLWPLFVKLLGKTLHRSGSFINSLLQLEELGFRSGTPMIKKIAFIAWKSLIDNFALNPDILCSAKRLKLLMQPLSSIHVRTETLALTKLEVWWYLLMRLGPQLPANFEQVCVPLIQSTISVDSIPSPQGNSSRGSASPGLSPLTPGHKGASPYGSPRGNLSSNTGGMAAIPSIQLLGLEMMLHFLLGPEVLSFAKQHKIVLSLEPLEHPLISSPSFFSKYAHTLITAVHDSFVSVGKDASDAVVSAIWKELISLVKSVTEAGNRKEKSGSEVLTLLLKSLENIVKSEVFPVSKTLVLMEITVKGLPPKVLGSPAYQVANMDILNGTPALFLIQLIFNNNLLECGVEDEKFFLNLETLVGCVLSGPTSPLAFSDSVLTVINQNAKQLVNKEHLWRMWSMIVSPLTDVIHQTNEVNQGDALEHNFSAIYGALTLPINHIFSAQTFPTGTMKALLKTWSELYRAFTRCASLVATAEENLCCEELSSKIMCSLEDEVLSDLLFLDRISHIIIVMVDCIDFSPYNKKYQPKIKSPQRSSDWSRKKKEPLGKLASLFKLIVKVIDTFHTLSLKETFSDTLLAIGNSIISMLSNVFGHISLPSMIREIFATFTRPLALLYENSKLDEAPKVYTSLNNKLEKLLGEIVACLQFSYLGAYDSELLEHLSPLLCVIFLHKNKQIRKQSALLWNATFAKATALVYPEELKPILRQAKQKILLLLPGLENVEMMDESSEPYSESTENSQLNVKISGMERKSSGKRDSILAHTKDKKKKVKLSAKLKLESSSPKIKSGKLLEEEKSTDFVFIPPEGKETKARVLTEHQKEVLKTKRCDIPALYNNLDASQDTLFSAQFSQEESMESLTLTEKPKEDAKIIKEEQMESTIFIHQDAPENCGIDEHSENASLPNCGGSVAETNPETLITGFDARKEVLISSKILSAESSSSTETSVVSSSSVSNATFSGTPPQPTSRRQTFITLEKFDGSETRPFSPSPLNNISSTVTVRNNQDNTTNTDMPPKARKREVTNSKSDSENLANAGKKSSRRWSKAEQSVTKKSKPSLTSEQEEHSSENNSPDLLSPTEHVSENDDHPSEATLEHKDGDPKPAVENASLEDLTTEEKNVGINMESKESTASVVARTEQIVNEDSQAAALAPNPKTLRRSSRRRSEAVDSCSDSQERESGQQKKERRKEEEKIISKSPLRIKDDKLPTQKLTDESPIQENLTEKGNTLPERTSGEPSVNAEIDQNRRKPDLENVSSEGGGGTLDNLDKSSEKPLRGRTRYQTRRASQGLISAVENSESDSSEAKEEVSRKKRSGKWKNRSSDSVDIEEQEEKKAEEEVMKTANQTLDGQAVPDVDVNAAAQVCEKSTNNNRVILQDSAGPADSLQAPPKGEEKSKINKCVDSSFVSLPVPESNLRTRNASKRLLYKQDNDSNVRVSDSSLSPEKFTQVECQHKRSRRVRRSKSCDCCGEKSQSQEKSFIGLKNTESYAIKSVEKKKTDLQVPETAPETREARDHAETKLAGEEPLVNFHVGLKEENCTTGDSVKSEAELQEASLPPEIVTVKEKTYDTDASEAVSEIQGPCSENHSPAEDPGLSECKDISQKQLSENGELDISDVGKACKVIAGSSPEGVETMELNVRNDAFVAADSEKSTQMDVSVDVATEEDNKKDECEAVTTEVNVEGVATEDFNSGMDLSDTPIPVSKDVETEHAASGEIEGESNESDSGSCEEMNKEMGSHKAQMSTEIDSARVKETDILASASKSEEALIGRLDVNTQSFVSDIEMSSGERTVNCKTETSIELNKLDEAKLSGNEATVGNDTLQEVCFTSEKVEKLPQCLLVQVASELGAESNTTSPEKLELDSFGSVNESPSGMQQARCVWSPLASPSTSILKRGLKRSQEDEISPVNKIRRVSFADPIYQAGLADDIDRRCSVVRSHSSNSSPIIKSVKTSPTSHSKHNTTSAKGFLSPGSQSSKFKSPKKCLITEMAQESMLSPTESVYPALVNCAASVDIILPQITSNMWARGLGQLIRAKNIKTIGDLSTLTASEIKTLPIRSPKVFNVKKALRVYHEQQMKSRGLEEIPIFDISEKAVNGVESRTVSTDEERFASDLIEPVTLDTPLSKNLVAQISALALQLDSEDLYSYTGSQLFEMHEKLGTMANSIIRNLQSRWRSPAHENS", "UniProt Q9CQJ4": "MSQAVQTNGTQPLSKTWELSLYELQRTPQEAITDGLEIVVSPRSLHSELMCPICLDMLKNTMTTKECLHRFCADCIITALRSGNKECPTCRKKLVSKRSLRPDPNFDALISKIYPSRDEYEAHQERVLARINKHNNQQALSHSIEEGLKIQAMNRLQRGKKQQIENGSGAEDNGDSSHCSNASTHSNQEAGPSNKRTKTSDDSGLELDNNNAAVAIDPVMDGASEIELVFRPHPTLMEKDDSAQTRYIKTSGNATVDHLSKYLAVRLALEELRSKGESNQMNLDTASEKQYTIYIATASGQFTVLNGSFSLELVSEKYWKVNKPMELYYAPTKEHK"},
  "source": "paper PMC9343540",
  "molecules": {"B1": {"name": "endogenous Pcgf6 (mESCs) (protein, UniProt Q99NA9 1-353)", "chain": "MDEAETDATENKRASEAKRASAMPPPPPPPPPISPPALIPAPAAGEEGPASLGQAGAAGCSRSRPPALEPERSLGRLRGRFEDYDEELEEEEEMEEEEEEEEEMSHFSLRLESGRADSEDEEERLINLVELTPYILCSICKGYLIDATTITECLHTFCKSCIVRHFYYSNRCPKCNIVVHQTQPLYNIRLDRQLQDIVYKLVINLEEREKKQMHDFYKERGLEVPKPAAPQPVPSSKGKTKKVLESVFRIPPELDMSLLLEFIGANEDTGHFKPLEKKFVRVSGEATIGHVEKFLRRKMGLDPACQVDIICGDHLLERYQTLREIRRAIGDTAMQDGLLVLHYGLVVSPLKIT"}, "B2": {"name": "endogenous RYBP (mESCs) (protein, UniProt Q8CCI5 1-228)", "chain": "MTMGDKKSPTRPKRQAKPAADEGFWDCSVCTFRNSAEAFKCSICDVRKGTSTRKPRINSQLVAQQVAQQYATPPPPKKEKKEKVEKPDKEKPEKDKDISPSVTKKNTNKKTKPKSDILKDPPSEANSIQSANATTKTSETNHTSRPRLKNVDRSTAQQLAVTVGNVTVIITDFKEKTRSSSTSSSTVTSSAGSEQQNQSSSGSESTDKGSSRSSTPKGDMSAVNDESF"}},
  "key": {"[1]": {"molecular_target": "T1, endogenous Pcgf6 (mESCs) (mouse (endogenous in mESCs)) (UniProt Q99NA9)", "T1 sequence": "B1 chain", "test": "SEC; gel filtration of mESC nuclear extracts (Rif1 WT control and Rif1 CKO) on Superdex 200 increase 10/300 GL in 50 mM Tris pH 8.0, 150 mM NaCl; fractions examined by Western blot"}, "[2]": {"molecular_target": "endogenously HA-tagged Mga (HA-Mga KI mESCs) (mouse (endogenous in E14 mESCs)) (UniProt A2AWL7)", "test": "co-IP; endogenous proteins in HA knock-in mESCs (HA-Rif1, HA-Pcgf6, HA-Mga); anti-HA affinity matrix overnight at 4 °C; lysis buffer 50 mM Tris, 150 mM NaCl, 0.5% NP40, 5 mM EDTA, pH 7.5; Western blot; HA-Pcgf6 KI cells also treated with shRNA targeting NT or Rif1"}, "[3]": {"molecular_target": "T2, endogenously HA-tagged Pcgf6 (HA-Pcgf6 KI mESCs) (mouse (endogenous in E14 mESCs)) (UniProt Q99NA9)", "T2 sequence": "B1 chain", "test": "co-IP; endogenous proteins in HA knock-in mESCs (HA-Rif1, HA-Pcgf6, HA-Mga); anti-HA affinity matrix overnight at 4 °C; lysis buffer 50 mM Tris, 150 mM NaCl, 0.5% NP40, 5 mM EDTA, pH 7.5; Western blot; HA-Pcgf6 KI cells also treated with shRNA targeting NT or Rif1"}, "[4]": {"molecular_target": "T3, Flag-Pcgf1 (UniProt Q8R023)", "T3 sequence": "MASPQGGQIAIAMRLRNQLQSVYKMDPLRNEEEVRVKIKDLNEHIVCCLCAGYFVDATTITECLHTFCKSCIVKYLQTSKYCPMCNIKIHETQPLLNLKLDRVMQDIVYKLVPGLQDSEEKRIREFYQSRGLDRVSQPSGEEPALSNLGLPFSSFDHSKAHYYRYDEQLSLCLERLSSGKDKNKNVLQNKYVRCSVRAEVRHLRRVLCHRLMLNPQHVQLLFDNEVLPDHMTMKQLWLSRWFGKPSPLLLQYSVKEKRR", "test": "co-IP; HEK293T cells ectopically expressing HA-Rif1 and Flag-tagged Pcgf proteins; anti-Flag M2 affinity gel overnight at 4 °C; lysis buffer 50 mM Tris, 150 mM NaCl, 0.5% NP40, 5 mM EDTA, pH 7.5; Western blot"}, "[5]": {"molecular_target": "T4, Flag-Pcgf2 (UniProt P23798)", "T4 sequence": "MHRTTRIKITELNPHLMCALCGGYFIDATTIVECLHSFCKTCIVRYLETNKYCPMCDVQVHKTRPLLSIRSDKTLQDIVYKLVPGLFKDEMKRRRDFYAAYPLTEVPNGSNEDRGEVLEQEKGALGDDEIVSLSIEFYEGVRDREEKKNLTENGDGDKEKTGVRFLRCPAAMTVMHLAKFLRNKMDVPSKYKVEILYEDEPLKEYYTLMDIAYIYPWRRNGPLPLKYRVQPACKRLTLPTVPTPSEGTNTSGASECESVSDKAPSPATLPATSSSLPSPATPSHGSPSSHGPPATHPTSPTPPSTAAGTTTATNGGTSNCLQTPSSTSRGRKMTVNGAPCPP", "test": "co-IP; HEK293T cells ectopically expressing HA-Rif1 and Flag-tagged Pcgf proteins; anti-Flag M2 affinity gel overnight at 4 °C; lysis buffer 50 mM Tris, 150 mM NaCl, 0.5% NP40, 5 mM EDTA, pH 7.5; Western blot"}, "[6]": {"molecular_target": "T5, Flag-Pcgf3 (UniProt Q8BTQ0)", "T5 sequence": "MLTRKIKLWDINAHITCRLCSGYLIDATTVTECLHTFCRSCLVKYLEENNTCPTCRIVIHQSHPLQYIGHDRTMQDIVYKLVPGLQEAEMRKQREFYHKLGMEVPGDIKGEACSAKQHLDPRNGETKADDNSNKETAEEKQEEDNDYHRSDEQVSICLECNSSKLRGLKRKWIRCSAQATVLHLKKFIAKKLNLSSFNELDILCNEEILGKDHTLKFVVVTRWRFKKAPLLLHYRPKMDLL", "test": "co-IP; HEK293T cells ectopically expressing HA-Rif1 and Flag-tagged Pcgf proteins; anti-Flag M2 affinity gel overnight at 4 °C; lysis buffer 50 mM Tris, 150 mM NaCl, 0.5% NP40, 5 mM EDTA, pH 7.5; Western blot"}, "[7]": {"molecular_target": "T6, Flag-Pcgf4 (UniProt P25916)", "T6 sequence": "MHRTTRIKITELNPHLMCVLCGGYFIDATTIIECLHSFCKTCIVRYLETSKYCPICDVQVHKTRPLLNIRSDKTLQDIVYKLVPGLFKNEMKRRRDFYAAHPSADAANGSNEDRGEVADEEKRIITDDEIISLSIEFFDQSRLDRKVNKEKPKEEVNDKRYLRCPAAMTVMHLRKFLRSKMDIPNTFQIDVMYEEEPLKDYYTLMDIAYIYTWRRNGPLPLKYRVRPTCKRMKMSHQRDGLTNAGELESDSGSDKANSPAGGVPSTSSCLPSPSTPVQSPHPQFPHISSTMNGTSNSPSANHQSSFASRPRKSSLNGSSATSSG", "test": "co-IP; HEK293T cells ectopically expressing HA-Rif1 and Flag-tagged Pcgf proteins; anti-Flag M2 affinity gel overnight at 4 °C; lysis buffer 50 mM Tris, 150 mM NaCl, 0.5% NP40, 5 mM EDTA, pH 7.5; Western blot"}, "[8]": {"molecular_target": "Flag-Pcgf5 (UniProt Q3UK78)", "test": "co-IP; HEK293T cells ectopically expressing HA-Rif1 and Flag-tagged Pcgf proteins; anti-Flag M2 affinity gel overnight at 4 °C; lysis buffer 50 mM Tris, 150 mM NaCl, 0.5% NP40, 5 mM EDTA, pH 7.5; Western blot"}, "[9]": {"molecular_target": "T7, Flag-Pcgf6 (UniProt Q99NA9)", "T7 sequence": "B1 chain", "test": "co-IP; HEK293T cells ectopically expressing HA-Rif1 and Flag-tagged Pcgf proteins; anti-Flag M2 affinity gel overnight at 4 °C; lysis buffer 50 mM Tris, 150 mM NaCl, 0.5% NP40, 5 mM EDTA, pH 7.5; Western blot"}, "[10]": {"molecular_target": "endogenously HA-tagged Rif1 (HA-Rif1 KI mESCs) (mouse (endogenous in mESCs)) (UniProt Q6PR54)", "test": "co-IP; endogenous proteins in HA knock-in mESCs (HA-Rif1, HA-Pcgf6, HA-Mga); anti-HA affinity matrix overnight at 4 °C; lysis buffer 50 mM Tris, 150 mM NaCl, 0.5% NP40, 5 mM EDTA, pH 7.5; Western blot; HA-Pcgf6 KI cells also treated with shRNA targeting NT or Rif1"}},
  "note": "These are yes or no findings as the source states them, for the method shown. For part of these data: In cells and extracts the contact can be indirect. Some binding calls cover weakened binding; strength is not graded here. For part of these data: Tags and fused reporters may be left off the sequences shown.",
  "data": [
    {"molecule": "endogenous Rif1 (from UniProt Q6PR54 1-2419)", "values": [
      {"measurement": "binding", "setting": "[1]", "value": "binds"},
      {"measurement": "binding", "setting": "[2]", "value": "binds"},
      {"measurement": "binding", "setting": "[3]", "value": "binds"}
    ]},
    {"molecule": "HA-Rif1 (ectopically expressed HA-tagged Rif1) (from UniProt Q6PR54 1-2419)", "values": [
      {"measurement": "binding", "setting": "[4]", "value": "no binding"},
      {"measurement": "binding", "setting": "[5]", "value": "no binding"},
      {"measurement": "binding", "setting": "[6]", "value": "no binding"},
      {"measurement": "binding", "setting": "[7]", "value": "no binding"},
      {"measurement": "binding", "setting": "[8]", "value": "no binding"},
      {"measurement": "binding", "setting": "[9]", "value": "binds"}
    ]},
    {"molecule": "endogenous RNF2 (mESCs) (from UniProt Q9CQJ4 1-336)", "values": [
      {"measurement": "binding", "setting": "[3]", "value": "binds"}
    ]},
    {"molecule": "B1", "values": [
      {"measurement": "binding", "setting": "[10]", "value": "binds"}
    ]},
    {"molecule": "B2", "values": [
      {"measurement": "binding", "setting": "[3]", "value": "binds"}
    ]}
  ]
}
